The list shows a part of the results. No stated cut-off is given here; in the data, active = 3.2 or more and inactive = the rest. Only a few entries rise above the background.
Columns and labels:
Assay in all cases: enrichment score (SH2-bound / input frequency) (ratio); bacterial display of known human phosphotyrosine sites (pTyr-Var adds point mutants) read by sequencing; higher = stronger binding; tyrosines were phosphorylated by kinases first
Details in all cases: peptide library: pTyr-Var
[1] = biological target: SHP2 C-SH2 domain E139D
[2] = biological target: SHP2 C-SH2 domain wild-type
[3] = biological target: SHP2 N-SH2 domain L43F
[4] = biological target: SHP2 N-SH2 domain T42A
[5] = biological target: SHP2 N-SH2 domain T52S
[6] = biological target: SHP2 N-SH2 domain wild-type

Measured: enrichment score
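Further: displayed peptides selected on beads carrying the immobilized SH2 domain, with library peptides lacking any tyrosine serving as negative controls.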

B1: NKAPL_Y94 (peptide)
chain: TSYSGYRYHRH
inactive: [1] 0.812 | [2] 0.802 | [3] 0.696 | [4] 0.701 | [5] 0.796 | [6] 0.619

B2: NKAPL_Y94_YF (peptide)
chain: TSFSGYRFHRH
inactive: [1] 2.02 | [2] 1.5 | [3] 1.79 | [4] 1.37 | [5] 1.61 | [6] 1.4

B3: NKD2_Y256 (peptide)
chain: AGIENYTSRFG
inactive: [1] 0.853 | [2] 0.741 | [3] 0.59 | [4] 0.556 | [5] 0.669 | [6] 0.612

B4: NLRP14_Y443_V441M_YF (peptide)
chain: MTFMFYRENLR
inactive: [1] 1.24 | [2] 1.22 | [3] 1.25 | [4] 1.34 | [5] 1.26 | [6] 1.36

B5: NLRP14_Y443_YF (peptide)
chain: MTFVFYRENLR
inactive: [1] 1.7 | [2] 1.24 | [3] 1.28 | [4] 1.42 | [5] 1.87 | [6] 1.37

B6: NLRP3_Y861_Y861C (peptide)
chain: SLTRLCVGENA
inactive: [1] 0.736 | [2] 0.84 | [3] 0.785 | [4] 0.662 | [5] 0.689 | [6] 0.78

B7: NMNAT1_Y55 (peptide)
chain: PVGDAYKKKGL
inactive: [1] 0.374 | [2] 0.532 | [3] 0.581 | [4] 0.432 | [5] 0.411 | [6] 0.644

B8: NMNAT1_Y55_A54V (peptide)
chain: PVGDVYKKKGL
inactive: [1] 0.355 | [2] 0.388 | [3] 0.573 | [4] 0.402 | [5] 0.346 | [6] 0.406

B9: NMNAT1_Y64_M69V (peptide)
chain: GLIPAYHRVIV
inactive: [1] 1.33 | [2] 1.35 | [3] 1.13 | [4] 1.39 | [5] 1.39 | [6] 1.38

B10: NNMT_Y25_S29C (peptide)
chain: YLEKYYKFGCR
inactive: [1] 1.48 | [2] 2.06 | [3] 1.52 | [4] 1.78 | [5] 1.69 | [6] 2.29

B11: NNMT_Y25_S29C_YF (peptide)
chain: FLEKFYKFGCR
inactive: [1] 1.46 | [2] 1.55 | [3] 1.51 | [4] 1.24 | [5] 1.53 | [6] 1.5

B12: NOB1_Y366_Y366F (peptide)
chain: VFAPDFIAGVS
inactive: [1] 1.1 | [2] 0.746 | [3] 1.01 | [4] 0.955 | [5] 1.13 | [6] 1.13

B13: NOG_Y172_R167G (peptide)
chain: GFWPRYVKVGS
inactive: [1] 0.65 | [2] 0.496 | [3] 0.583 | [4] 0.53 | [5] 0.711 | [6] 0.699

B14: NOG_Y222_P223L (peptide)
chain: WIPIQYLIISE
active: [5] 3.65
inactive: [1] 2.36 | [2] 2.31 | [3] 2.92 | [4] 3.04 | [6] 2.43

B15: NOG_Y222_W217G (peptide)
chain: GIPIQYPIISE
inactive: [1] 1.26 | [2] 1.02 | [3] 1.09 | [4] 1.05 | [5] 1 | [6] 1.1

B16: NOG_Y222_Y222C (peptide)
chain: WIPIQCPIISE
inactive: [1] 1.07 | [2] 1.41 | [3] 0.866 | [4] 1.06 | [5] 0.901 | [6] 1.05

B17: NOTCH3_Y2221 (peptide)
chain: GHGEEYPAAGA
inactive: [1] 0.51 | [2] 0.416 | [3] 0.502 | [4] 0.404 | [5] 0.451 | [6] 0.51

B18: NOX1_Y373 (peptide)
chain: AFEQQYSPIPR
inactive: [1] 0.605 | [2] 0.607 | [3] 0.552 | [4] 0.547 | [5] 0.664 | [6] 0.757

B19: NOX1_Y373_R378K (peptide)
chain: AFEQQYSPIPK
inactive: [1] 0.647 | [2] 0.516 | [3] 0.929 | [4] 0.662 | [5] 0.638 | [6] 0.646

B20: NPC1_Y394 (peptide)
chain: RLEKEYFDQHF
inactive: [1] 1.11 | [2] 0.929 | [3] 0.969 | [4] 0.902 | [5] 0.859 | [6] 1.18

B21: NPC2_Y119 (peptide)
chain: PVKSEYPSIKL
inactive: [1] 0.857 | [2] 0.897 | [3] 1.02 | [4] 1.22 | [5] 0.855 | [6] 1.13

B22: NPHS1_Y1138_R1140C (peptide)
chain: TEAEPYYCSLR
inactive: [1] 0.634 | [2] 0.938 | [3] 0.827 | [4] 0.644 | [5] 0.845 | [6] 0.944

B23: NPHS1_Y1138_R1140C_YF (peptide)
chain: TEAEPYFCSLR
inactive: [1] 0.847 | [2] 0.861 | [3] 0.82 | [4] 0.712 | [5] 0.569 | [6] 0.945

B24: NPHS1_Y1139 (peptide)
chain: EAEPYYRSLRD
inactive: [1] 0.585 | [2] 0.49 | [3] 0.546 | [4] 0.551 | [5] 0.596 | [6] 0.79

B25: NPHS1_Y1139_R1140C_YF (peptide)
chain: EAEPFYCSLRD
inactive: [1] 0.698 | [2] 0.809 | [3] 0.588 | [4] 0.668 | [5] 0.66 | [6] 0.998

B26: NPHS2_Y131 (peptide)
chain: KVVQEYERVII
inactive: [1] 0.896 | [2] 0.796 | [3] 0.814 | [4] 0.643 | [5] 0.929 | [6] 0.909

B27: NPHS2_Y194 (peptide)
chain: IDAICYYRMEN
inactive: [1] 1.04 | [2] 1.28 | [3] 1.1 | [4] 0.854 | [5] 0.851 | [6] 1.49

B28: NPHS2_Y195_I192V (peptide)
chain: DAVCYYRMENA
inactive: [1] 0.913 | [2] 1.29 | [3] 0.916 | [4] 0.93 | [5] 0.857 | [6] 1.33

B29: NPHS2_Y195_I192V_YF (peptide)
chain: DAVCFYRMENA
inactive: [1] 0.909 | [2] 1.15 | [3] 0.825 | [4] 0.691 | [5] 0.787 | [6] 1.16

B30: NPHS2_Y195_YF (peptide)
chain: DAICFYRMENA
inactive: [1] 0.939 | [2] 1.45 | [3] 1.05 | [4] 0.963 | [5] 0.981 | [6] 1.22

B31: NPSR1_Y147_S143G (peptide)
chain: LGIDRYHAIVY
inactive: [1] 0.789 | [2] 0.753 | [3] 0.673 | [4] 0.799 | [5] 0.684 | [6] 0.841

B32: NPSR1_Y147_S143G_YF (peptide)
chain: LGIDRYHAIVF
inactive: [1] 0.593 | [2] 0.6 | [3] 0.75 | [4] 0.52 | [5] 0.676 | [6] 0.838

B33: NPSR1_Y147_YF (peptide)
chain: LSIDRYHAIVF
inactive: [1] 0.837 | [2] 0.691 | [3] 0.664 | [4] 0.941 | [5] 0.689 | [6] 0.912

B34: NPY1R_Y347_D346Y (peptide)
chain: SRDDYYETIAM
inactive: [1] 0.854 | [2] 0.721 | [3] 0.818 | [4] 0.628 | [5] 0.508 | [6] 0.75

B35: NPY1R_Y347_D346Y_YF (peptide)
chain: SRDDFYETIAM
inactive: [1] 0.745 | [2] 0.764 | [3] 0.687 | [4] 0.703 | [5] 0.796 | [6] 0.812

B36: NR3C1_Y30 (peptide)
chain: DVMDFYKTLRG
inactive: [1] 0.802 | [2] 0.706 | [3] 0.642 | [4] 0.497 | [5] 0.742 | [6] 0.75

B37: NRAP_Y523 (peptide)
chain: KNKLNYTLPQD
inactive: [1] 0.706 | [2] 0.805 | [3] 0.742 | [4] 0.767 | [5] 0.876 | [6] 0.807

Reference: the supplement of paper PMC10369915
